{"source": "PubChem BioAssay (NCATS)", "key": {"[1]": {"biological_target": "DNA repair nuclease/redox regulator APEX1 (Homo sapiens) (UniProt P27695)", "sequence (P27695 whole entry, looked up)": "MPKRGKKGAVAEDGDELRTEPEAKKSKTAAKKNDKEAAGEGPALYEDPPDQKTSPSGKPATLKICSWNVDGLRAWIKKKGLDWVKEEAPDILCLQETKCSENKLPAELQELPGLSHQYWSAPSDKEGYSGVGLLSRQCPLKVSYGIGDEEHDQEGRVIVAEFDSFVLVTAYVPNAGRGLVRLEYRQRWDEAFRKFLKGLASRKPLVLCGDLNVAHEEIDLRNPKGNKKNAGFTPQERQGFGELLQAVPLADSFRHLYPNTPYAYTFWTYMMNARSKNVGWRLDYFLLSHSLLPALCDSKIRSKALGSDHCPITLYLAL", "assay": "qHTS FP-Based Assay for Inhibitors of the Human Apurinic/apyrimidinic Endonuclease 1 (APE1) (AID 2573); note: potency is the fitted concentration of half-maximal effect", "details": "APE1 binding to TAMRA-labelled double-stranded DNA, fluorescence polarization displacement; series mostly up to 57.1 µM"}, "[2]": {"assay": "Cytometric Cell-Based qHTS for Inhibitors of the mTORC1 Signaling Pathway in MEF (Tsc2-/-, p53-/-) Cells (AID 2660); note: potency is the fitted concentration of half-maximal effect;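 for activity change, negative = inhibition: percent of cells above a phospho-rpS6 to PI ratio cutoff in each well; plate controls were DMSO for no effect and rapamycin for full effect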", "details": "mTORC1 pathway cytometry; series mostly up to 38.3 µM", "outline": "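Immunofluorescence qHTS of rpS6 Ser235/236 phosphorylation: MEFs (Tsc2-/-, p53-/-) treated 24 h, 37 C, in DMEM + 10% FBS. Alexa-488 signal normalized to PI count, referenced to rapamycin (7.5 nM) and DMSO; PI cell number recorded for viability.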"}, "[3]": {"assay": "High Content Imaging Cell-Based qHTS for Inhibitors of the mTORC1 Signaling Pathway in MEF (Tsc2-/-, p53-/-) Cells (AID 2666); note: potency is the fitted concentration of half-maximal effect", "outline": "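Tsc2-/-, p53-/- MEFs (empty-vector stable) grown in DMEM + 10% FBS were exposed to compounds for 24 hrs at 37 degree Celsius, fixed, and stained with Alexa-488 anti-phospho-rpS6 Ser235/236 plus Hoechst. Imaging gave the percentage of positive cells per well.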"}, "[4]": {"assay": "Cytometry Cell-Based qHTS for Inhibitors of the mTORC1 Signaling Pathway in MEF cells (AID 2668); note: potency is the fitted concentration of half-maximal effect", "details": "mTORC1 pathway readout; series mostly up to 38.3 µM", "outline": "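In MEFs grown in DMEM + 10% FBS, a 24 hrs compound exposure preceded imaging of phospho-rpS6 Ser235/236 by laser-scanning cytometry.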"}, "[5]": {"assay": "Validation screen for small molecules that induce DNA re-replication in MCF 10A normal breast cells (AID 463097); note: nearly all actives have a fitted effect of over 60% in size; note: potency is the fitted concentration of half-maximal effect", "details": "MCF 10A cells, DNA re-replication phenotype imaging; series mostly up to 46.1 µM", "outline": "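Following 48 hr compound incubation (37 C, 5% CO2), MCF 10A cells receive Hoechst for 40 min at 37 C. Nuclei are then scanned (excitation 405 nm, emission 500-530 nm) for total fluorescence intensity.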"}, "[6]": {"biological_target": "ATP-dependent 6-phosphofructokinase (Trypanosoma brucei brucei) (UniProt O15648)", "sequence (O15648 whole entry, looked up)": "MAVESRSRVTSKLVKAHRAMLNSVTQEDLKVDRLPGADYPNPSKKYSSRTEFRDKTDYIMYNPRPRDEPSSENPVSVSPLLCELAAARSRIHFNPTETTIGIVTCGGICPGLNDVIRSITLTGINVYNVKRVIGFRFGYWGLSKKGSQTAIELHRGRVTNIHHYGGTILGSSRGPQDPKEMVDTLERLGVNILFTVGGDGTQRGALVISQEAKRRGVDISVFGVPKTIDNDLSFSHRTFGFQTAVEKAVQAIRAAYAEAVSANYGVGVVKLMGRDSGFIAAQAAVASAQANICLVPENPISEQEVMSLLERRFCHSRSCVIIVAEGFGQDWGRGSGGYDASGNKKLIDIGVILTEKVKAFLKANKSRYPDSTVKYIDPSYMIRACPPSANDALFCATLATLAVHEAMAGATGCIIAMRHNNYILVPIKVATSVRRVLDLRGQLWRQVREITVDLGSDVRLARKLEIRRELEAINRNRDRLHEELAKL", "assay": "qHTS Validation Assay to Find Inhibitors of T. brucei phosphofructokinase (AID 485368); note: potency is the fitted concentration of half-maximal effect", "details": "T. brucei PFK enzyme assay, qHTS 7-point titration; activity change, negative = inhibition: at 57.5 µM (top of the series); series mostly up to 57.5 µM", "outline": "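ADP-Glo luminescence, two-step: residual ATP depleted, then ADP converted to ATP for luciferase. Enzyme 1.25 nM, F6P 0.5 mM, ATP 0.1 mM, pH 8.0 TEA buffer, 45 min RT. Curves fitted and classed by quality and efficacy.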"}, "[7]": {"biological_target": "Thioredoxin reductase 1, cytoplasmic (Rattus norvegicus) (UniProt O89049)", "sequence (O89049 whole entry, looked up)": "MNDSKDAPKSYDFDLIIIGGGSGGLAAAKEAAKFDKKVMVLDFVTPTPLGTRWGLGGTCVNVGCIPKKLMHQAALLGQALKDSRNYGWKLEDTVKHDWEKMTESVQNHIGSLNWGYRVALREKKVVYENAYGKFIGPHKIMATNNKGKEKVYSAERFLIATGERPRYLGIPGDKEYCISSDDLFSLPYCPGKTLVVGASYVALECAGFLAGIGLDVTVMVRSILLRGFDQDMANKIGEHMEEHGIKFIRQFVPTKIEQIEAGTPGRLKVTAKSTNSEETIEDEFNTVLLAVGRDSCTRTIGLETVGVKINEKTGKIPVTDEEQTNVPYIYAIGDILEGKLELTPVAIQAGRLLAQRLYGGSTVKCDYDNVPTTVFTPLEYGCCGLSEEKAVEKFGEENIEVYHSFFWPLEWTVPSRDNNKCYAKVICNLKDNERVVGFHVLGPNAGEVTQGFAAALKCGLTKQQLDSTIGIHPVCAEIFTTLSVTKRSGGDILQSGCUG", "assay": "qHTS Assay for Substrates of Mammalian Selenoprotein Thioredoxin Reductase 1 (TrxR1) (AID 488772);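 note: potency is the fitted concentration of half-maximal effect; a drop in NADPH fluorescence below the no-compound background marks a TrxR1 substrate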", "details": "purified TrxR1, NADPH consumption substrate assay", "outline": "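In this dual-purpose format, potential substrates are identified from the first fluorescence read after selenite addition, not from the 8-minute delta. Rat enzyme is preincubated with NADPH and then with compound at ~22 deg C.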"}, "[8]": {"biological_target": "Chromobox protein homolog 1 (Homo sapiens) (UniProt P83916)", "sequence (P83916 whole entry, looked up)": "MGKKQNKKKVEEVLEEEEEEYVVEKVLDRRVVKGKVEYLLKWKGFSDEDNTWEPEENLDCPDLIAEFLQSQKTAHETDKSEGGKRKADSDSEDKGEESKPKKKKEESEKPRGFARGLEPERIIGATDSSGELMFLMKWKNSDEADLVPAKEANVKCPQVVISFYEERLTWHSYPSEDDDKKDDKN", "assay": "qHTS Validation Assay for Inhibitors of HP1-beta Chromodomain Interactions with Methylated Histone Tails (AID 488953); note: potency is the fitted concentration of half-maximal effect; nearly all actives have a fitted effect of over 50% in size", "details": "HP1-beta chromodomain / methylated histone peptide binding assay; series mostly up to 114 µM", "outline": "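AlphaScreen proximity readout: streptavidin donor and Ni-chelate acceptor beads, 10 ug/mL final, 30 min dark, RT. Complex of 50 nM HP1-beta and 50 nM b-H3(1-18)K9me3 formed 30 min, then compound-treated 30 min; PBS pH 7.4/0.01% Tween-20.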"}, "[9]": {"assay": "Quantitative high throughput screen for delayed death inhibitors of the malarial parasite plastid, 96 hour incubation (AID 488745); note: potency is the fitted concentration of half-maximal effect; nearly all actives have a fitted effect of over 70% in size", "details": "Plasmodium falciparum growth; series mostly up to 28.7 µM", "outline": "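Luciferase-expressing P. falciparum, infected RBCs 2% Hct/0.1% parasitemia (final); 96 h cpd exposure, 37 C, 5% CO2; RPMI 1640 + 0.5% Albumax, bicarbonate, gentamycin. Readout: luminescence loss = growth inhibition.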"}, "[10]": {"biological_target": "Thioredoxin reductase 1, cytoplasmic (Rattus norvegicus) (UniProt O89049)", "assay": "qHTS Assay for Inhibitors of Mammalian Selenoprotein Thioredoxin Reductase 1 (TrxR1) (AID 488773); note: potency is the fitted concentration of half-maximal effect; nearly all actives have a fitted effect of over 40% in size", "details": "purified TrxR1 enzyme activity; Potency: inhibition; series mostly up to 57.1 µM", "outline": "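Inhibition is scored from the loss of NADPH fluorescence between first and last reads of an 8-min kinetic run. Selenite (400 uM) was the substrate, added after 15 min compound preincubation at room temperature.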"}, "[11]": {"biological_target": "Transient receptor potential cation channel subfamily V member 1 (Homo sapiens) (UniProt Q8NER1)", "sequence (Q8NER1 whole entry, looked up)": "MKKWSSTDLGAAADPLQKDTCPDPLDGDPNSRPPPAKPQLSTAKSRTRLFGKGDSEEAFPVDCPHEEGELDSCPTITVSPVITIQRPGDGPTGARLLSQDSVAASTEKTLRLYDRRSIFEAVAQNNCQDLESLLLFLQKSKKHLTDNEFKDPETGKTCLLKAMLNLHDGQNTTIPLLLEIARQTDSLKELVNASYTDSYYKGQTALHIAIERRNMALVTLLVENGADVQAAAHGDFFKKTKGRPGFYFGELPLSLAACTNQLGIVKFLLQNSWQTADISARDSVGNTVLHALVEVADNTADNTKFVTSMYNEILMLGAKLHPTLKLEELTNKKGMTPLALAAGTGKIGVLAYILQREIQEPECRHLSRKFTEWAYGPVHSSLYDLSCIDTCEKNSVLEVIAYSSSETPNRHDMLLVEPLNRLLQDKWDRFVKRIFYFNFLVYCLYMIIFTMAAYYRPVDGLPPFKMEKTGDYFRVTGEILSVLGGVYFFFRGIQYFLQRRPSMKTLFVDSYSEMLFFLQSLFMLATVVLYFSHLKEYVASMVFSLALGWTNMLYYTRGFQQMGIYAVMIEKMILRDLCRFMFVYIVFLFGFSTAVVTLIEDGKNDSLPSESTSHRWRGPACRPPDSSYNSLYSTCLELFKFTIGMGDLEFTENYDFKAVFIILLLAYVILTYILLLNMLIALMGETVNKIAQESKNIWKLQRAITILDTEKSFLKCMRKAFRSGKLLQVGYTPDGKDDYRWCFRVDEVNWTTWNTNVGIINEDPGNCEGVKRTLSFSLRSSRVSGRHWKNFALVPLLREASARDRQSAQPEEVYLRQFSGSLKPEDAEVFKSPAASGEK", "assay": "HTS Assay for Compounds that Act as Enhancers of the Vanilloid Receptor 1 (AID 488979); note: potency is the fitted concentration of half-maximal effect", "details": "TRPV1-expressing cells, enhancer of channel activity; stimulated with capsaicin at EC20", "outline": "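Calcium influx kinetics via Fluo-8 (480/520 nm) in TRPV1-expressing cells, 2000/well cultured overnight at 35.5C. Compound-alone read 3 min (agonist phase), followed by EC20 capsaicin challenge for 2 min (enhancer phase).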"}, "[12]": {"assay": "qHTS Validation Assay to Find Inhibitors of Chronic Active B-Cell Receptor Signaling (AID 485345; active = well fitted curve in the direction sought with a large enough effect in the main read-out, with a control signal flat, not every such curve was filed as active; inconclusive = small, poorly fitted or top-dose-only effect, or effect the other way, or a change in a side signal; inactive = no such curve, though single readings can be large or run the other way;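 note: 0% = untreated basal cells and 100% = 10 µM MG-132 proteasome inhibitor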)", "details": "ABC-DLBCL cells, chronic BCR signaling reporter; activity change: CBG luciferase, at 46.1 µM (top of the series)", "outline": "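Read-out: ratio of filter-corrected green (IkappaBalpha fusion) to red (native) luciferase signal in doxycycline-induced TMD8 cells after 4 h at 37C. Titration spanned 46 uM–3 nM; Data were normalised to basal cells and 10 uM MG-132 wells.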"}, "[13]": {"biological_target": "DNA polymerase III PolC-type (Bacillus subtilis (strain 168)) (UniProt P13267)", "sequence (P13267 whole entry, looked up)": "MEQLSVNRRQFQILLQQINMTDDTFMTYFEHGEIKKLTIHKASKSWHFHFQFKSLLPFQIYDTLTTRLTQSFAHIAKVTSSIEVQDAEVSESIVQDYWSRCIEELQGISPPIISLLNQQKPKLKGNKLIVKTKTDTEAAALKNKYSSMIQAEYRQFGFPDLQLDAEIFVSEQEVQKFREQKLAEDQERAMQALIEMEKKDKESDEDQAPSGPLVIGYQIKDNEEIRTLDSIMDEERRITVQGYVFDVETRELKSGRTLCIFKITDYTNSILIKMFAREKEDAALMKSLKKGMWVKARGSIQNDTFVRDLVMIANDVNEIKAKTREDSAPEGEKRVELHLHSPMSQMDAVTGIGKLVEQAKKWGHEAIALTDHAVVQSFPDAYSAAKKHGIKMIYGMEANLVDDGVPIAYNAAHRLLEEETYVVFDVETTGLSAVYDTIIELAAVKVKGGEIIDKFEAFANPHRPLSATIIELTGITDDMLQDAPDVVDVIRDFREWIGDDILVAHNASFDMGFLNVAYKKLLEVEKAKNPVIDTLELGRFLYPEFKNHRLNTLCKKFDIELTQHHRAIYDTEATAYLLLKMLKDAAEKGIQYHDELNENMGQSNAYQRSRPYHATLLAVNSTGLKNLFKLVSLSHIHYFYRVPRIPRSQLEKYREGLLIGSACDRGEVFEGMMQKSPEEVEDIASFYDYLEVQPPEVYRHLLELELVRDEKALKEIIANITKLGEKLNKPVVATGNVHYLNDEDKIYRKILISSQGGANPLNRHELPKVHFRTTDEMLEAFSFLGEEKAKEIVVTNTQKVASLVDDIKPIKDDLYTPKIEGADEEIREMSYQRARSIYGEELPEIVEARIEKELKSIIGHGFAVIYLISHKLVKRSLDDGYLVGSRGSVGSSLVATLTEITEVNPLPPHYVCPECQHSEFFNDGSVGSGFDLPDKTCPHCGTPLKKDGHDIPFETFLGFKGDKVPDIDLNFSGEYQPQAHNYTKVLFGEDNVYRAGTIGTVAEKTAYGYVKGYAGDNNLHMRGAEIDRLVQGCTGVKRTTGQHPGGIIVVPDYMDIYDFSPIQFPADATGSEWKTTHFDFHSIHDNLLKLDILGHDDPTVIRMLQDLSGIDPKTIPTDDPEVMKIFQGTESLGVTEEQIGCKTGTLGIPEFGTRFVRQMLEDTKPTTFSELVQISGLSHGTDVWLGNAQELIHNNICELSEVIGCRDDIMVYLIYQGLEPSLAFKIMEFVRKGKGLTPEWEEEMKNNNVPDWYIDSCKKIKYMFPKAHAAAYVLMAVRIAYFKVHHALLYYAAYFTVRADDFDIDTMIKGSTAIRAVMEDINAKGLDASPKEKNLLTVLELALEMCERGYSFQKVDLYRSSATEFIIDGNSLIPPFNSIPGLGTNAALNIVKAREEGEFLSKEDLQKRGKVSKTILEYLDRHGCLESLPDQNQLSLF", "assay": "qHTS Validation Assay for the Inhibitors of DNA Replication in Gram-Positive Bacteria (AID 485295); note: potency is the fitted concentration of half-maximal effect", "details": "Gram-positive bacterial DNA replication assay", "outline": "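Inhibition of DNA synthesis by the reconstituted PolC holoenzyme, monitored through PicoGreen staining of dsDNA formed from ssM13Gori, dNTPs and NTPs, with compound preincubation and room-temperature reaction.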"}, "[14]": {"assay": "Quantitative high throughput screen for delayed death inhibitors of the malarial parasite plastid, 48 hour incubation (AID 488752); note: potency is the fitted concentration of half-maximal effect; nearly all actives have a fitted effect of over 65% in size", "details": "Plasmodium falciparum growth; series mostly up to 28.7 µM", "outline": "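Luciferase-expressing P. falciparum in RBCs, 2% Hct, 0.1% parasitemia final; RPMI 1640 + 0.5% Albumax; 48 h, 37 C, 5% CO2; luminescence readout, signal drop = growth inhibition.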"}, "[15]": {"biological_target": "M-phase phosphoprotein 8 (Homo sapiens) (UniProt Q99549)", "sequence (Q99549 whole entry, looked up)": "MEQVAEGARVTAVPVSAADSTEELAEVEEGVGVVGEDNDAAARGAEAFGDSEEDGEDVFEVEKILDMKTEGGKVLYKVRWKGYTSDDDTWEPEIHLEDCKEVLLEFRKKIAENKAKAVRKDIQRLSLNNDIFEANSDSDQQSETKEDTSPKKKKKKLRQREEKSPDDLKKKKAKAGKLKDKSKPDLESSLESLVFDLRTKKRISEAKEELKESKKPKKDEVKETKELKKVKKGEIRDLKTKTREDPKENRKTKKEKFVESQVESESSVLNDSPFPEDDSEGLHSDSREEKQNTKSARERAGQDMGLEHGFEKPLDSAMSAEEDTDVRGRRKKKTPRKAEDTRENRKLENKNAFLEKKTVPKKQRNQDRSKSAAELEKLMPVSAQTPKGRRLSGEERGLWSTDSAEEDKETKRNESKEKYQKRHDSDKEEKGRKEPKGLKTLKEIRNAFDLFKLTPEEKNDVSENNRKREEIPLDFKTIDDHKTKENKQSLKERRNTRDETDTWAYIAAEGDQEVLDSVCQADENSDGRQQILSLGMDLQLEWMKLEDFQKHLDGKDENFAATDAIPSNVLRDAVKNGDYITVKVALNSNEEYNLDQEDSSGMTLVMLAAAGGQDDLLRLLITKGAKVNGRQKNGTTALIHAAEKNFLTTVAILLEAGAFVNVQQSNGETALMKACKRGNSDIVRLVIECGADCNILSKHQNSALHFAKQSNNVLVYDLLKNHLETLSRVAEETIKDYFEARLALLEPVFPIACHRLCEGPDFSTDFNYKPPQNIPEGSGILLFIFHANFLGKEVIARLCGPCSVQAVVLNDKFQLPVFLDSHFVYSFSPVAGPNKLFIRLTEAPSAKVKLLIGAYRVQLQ", "assay": "qHTS Validation Assay for Inhibitors for MPP8 Chromodomain Interactions with Methylated Histone Tails (AID 488949); note: potency is the fitted concentration of half-maximal effect; nearly all actives have a fitted effect of over 55% in size", "details": "AlphaScreen MPP8 binding to H3K9me3 peptide; series mostly up to 57.1 µM", "outline": "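Chemiluminescent proximity assay: histidine-tag capture via nickel acceptor beads, biotin peptide via streptavidin donor beads. Protein and peptide each at 50 nM, pH 7.4, with 30 min incubations at room temperature for complex formation, compound exposure and bead binding.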"}}, "note": "The inconclusive results got no clear call from the source; some entries with a clear call stand among them for comparison. For part of these data: Potencies beside an inconclusive call are fits to weak or partial responses and may not hold up. A structure can be active in one record and inactive in another. The source made the active and inactive calls. Unless noted, calls come from the whole dose curve; as a rule, active = well fitted curve in the direction sought with a large enough effect; inconclusive = small, poorly fitted or top-dose-only effect, or another doubt; inactive = no such curve, though single readings can be large; an effect the other way counts as inactive or inconclusive. Tags give direction and shape of the fitted curve.", "data": [{"smiles": "COc1cccc2c1C(=O)c1c(O)c3c(c(O)c1C2=O)C[C@@](O)(C(C)=O)C[C@@H]3O[C@H]1C[C@H](N)[C@H](O)[C@H](C)O1", "values": [{"measurement": "Potency", "setting": "[1]", "value": "active: 2 µM"}]}, {"smiles": "O=C1NCN(c2ccccc2)C12CCN(CCCC(c1ccc(F)cc1)c1ccc(F)cc1)CC2", "values": [{"measurement": "Potency", "setting": "[2]", "value": "inconclusive: 18.5 µM [falling, single point]"}, {"measurement": "Potency", "setting": "[3]", "value": "inconclusive: 23.3 µM [falling, single point]"}, {"measurement": "Potency", "setting": "[4]", "value": "inconclusive: 18.5 µM [falling, single point]"}, {"measurement": "Potency", "setting": "[5]", "value": "inconclusive: 28.2 µM [activator, single point]"}, {"measurement": "Potency", "setting": "[6]", "value": "inactive"}, {"measurement": "Potency", "setting": "[7]", "value": "inconclusive: 9.47 µM [inhibitor, partial curve]"}, {"measurement": "Potency", "setting": "[8]", "value": "active: 39.8 µM"}]}, {"smiles": "CC(CN1c2ccccc2Sc2ccccc21)N(C)C", "note": "(stereo not given)", "values": [{"measurement": "Potency", "setting": "[2]", "value": "inactive"}, {"measurement": "Potency", "setting": "[4]", "value": "inconclusive: 14.7 µM [falling, single point]"}, {"measurement": "Potency", "setting": "[5]", "value": "inconclusive: 35.5 µM [activator, single point]"}, {"measurement": "Potency", "setting": "[6]", "value": "inconclusive: 33.8 µM [falling, single point]"}, {"measurement": "Potency", "setting": "[9]", "value": "inconclusive: 18.5 µM [inhibitor, single point]"}, {"measurement": "Potency", "setting": "[10]", "value": "inconclusive: 23.8 µM [inhibitor, single point]"}, {"measurement": "Potency", "setting": "[8]", "value": "active: 39.8 µM"}, {"measurement": "Potency", "setting": "[11]", "value": "inconclusive: 15.8 µM [activator, single point]"}]}, {"smiles": "CN(C(=O)CCCOc1ccc2[nH]c(=O)ccc2c1)C1CCCCC1", "values": [{"measurement": "Potency", "setting": "[5]", "value": "inactive"}, {"measurement": "activity change", "setting": "[12]", "value": "inconclusive: -61.8%"}, {"measurement": "Potency", "setting": "[6]", "value": "inactive"}, {"measurement": "Potency", "setting": "[9]", "value": "inconclusive: 18.5 µM [inhibitor, single point]"}]}, {"smiles": "COc1cc(NS(C)(=O)=O)ccc1Nc1c2ccccc2nc2ccccc12", "values": [{"measurement": "Potency", "setting": "[2]", "value": "inconclusive: 0.131 µM [falling, full curve]"}, {"measurement": "Potency", "setting": "[4]", "value": "active: 0.521 µM"}, {"measurement": "Potency", "setting": "[5]", "value": "inconclusive: 35.5 µM [activator, partial curve, poor fit]"}, {"measurement": "Potency", "setting": "[13]", "value": "inconclusive: 29.9 µM [inhibitor, single point]"}, {"measurement": "activity change", "setting": "[12]", "value": "inconclusive: 35.7%"}, {"measurement": "Potency", "setting": "[6]", "value": "inactive"}, {"measurement": "Potency", "setting": "[9]", "value": "active: 1.17 µM"}, {"measurement": "Potency", "setting": "[14]", "value": "active: 1.85 µM"}, {"measurement": "Potency", "setting": "[15]", "value": "active: 39.8 µM"}, {"measurement": "Potency", "setting": "[8]", "value": "active: 79.4 µM"}]}]}
